Assay results taken from the RNAGym collection of RNA variant scans (doi:10.7554/elife.90254).
The source gives no read counts; variants with many changes may rest on few reads.

B1: LINE1-mini (parent)
chain: GGCAGAGCUCAACACAGCGUGGCAAAGUGGCUGUGGCUAGACUGCC

Variants of: B1
Experiment: self-cleavage, relative activity (ratio to wild type); higher = more cleavage; in vitro, sequencing; the parent is a self-cleaving ribozyme
With C15A G17A C46A the self-cleavage was 0.02. C15A G17A U38A A41C showed a self-cleavage of 0.02. C15A G17C C18U C23G G36U U38C gave a self-cleavage of 0.05. Variant C15A G17C G33C has a self-cleavage of 0.03. With C15A G17U U28A G33U the self-cleavage was 0.04. Variant C15A G19A A24U G29U G35C U43G has a self-cleavage of 0.02. Variant C15A G19A C23G A39G has a self-cleavage of 0.05. For C15A G19A G27U G40C, the self-cleavage was 0.06. In the case of C15A G19A G29A, the self-cleavage is reported as 0.06. Variant C15A G19A G44C C46U has a self-cleavage of 0.02. Variant C15A G19C C23U has a self-cleavage of 0.06. In the case of C15A G19C G21U G30U C42U, the self-cleavage is reported as 0.02. For C15A G19C G22C C23U G30U, the self-cleavage was 0.02. For C15A G19C U20A G22U, the self-cleavage was 0.09. In the case of C15A G19C U32G, the self-cleavage is reported as 0.03. C15A G19U A25C C37A A39G showed a self-cleavage of 0.02. In the case of C15A G19U A26G, the self-cleavage is reported as 0.06. Work on C15A G19U C31A U32C yielded a self-cleavage of 0.01. C15A G19U G21A G35C A41U showed a self-cleavage of 0.02. C15A G19U G30C showed a self-cleavage of 0.08. For C15A G19U U20A, the self-cleavage was 0.03. With C15A G21A G30C G35U C42U the self-cleavage was 0.03. Variant C15A G21C C42U has a self-cleavage of 0.02. C15A G21U C46U gave a self-cleavage of 0.04. Variant C15A G21U U43G C45G C46A has a self-cleavage of 0.01. Work on C15A G22A U28C C46A yielded a self-cleavage of 0.06. Variant C15A G22C C37U has a self-cleavage of 0.09. Variant C15A G27U U34A has a self-cleavage of 0.02. C15A G29A C37U gave a self-cleavage of 0.01. C15A G29C C45U showed a self-cleavage of 0.03. With C15A G29U C31U the self-cleavage was 0.02. C15A G29U C37U C46A gave a self-cleavage of 0.03. C15A G29U G44A showed a self-cleavage of 0.03. C15A G30A C37G G44U gave a self-cleavage of 0.03. Variant C15A G30A C37U has a self-cleavage of 0.05. With C15A G30A G35A U43C the self-cleavage was 0.07. With C15A G30A U38G C42U the self-cleavage was 0.01. In the case of C15A G30C G36A, the self-cleavage is reported as 0.02. Variant C15A G30C U32C G33A C37A has a self-cleavage of 0.01. Work on C15A G30U G33U yielded a self-cleavage of 0.19. Variant C15A G30U U32A C42G has a self-cleavage of 0.04. In the case of C15A G33A G36U U43C, the self-cleavage is reported as 0.02. In the case of C15A G33U G40A, the self-cleavage is reported as 0.04. C15A G33U U38G A41C showed a self-cleavage of 0. With C15A G36U C45A the self-cleavage was 0.03. C15A U20G G29U U38A G44C gave a self-cleavage of 0.07. With C15A U20G G35U C46G the self-cleavage was 0.01. Work on C15A U28A G36U U43A yielded a self-cleavage of 0.02. C15A U28G U32C showed a self-cleavage of 0.02. In the case of C15A U32A C42G, the self-cleavage is reported as 0.03. Work on C15A U34C U43G yielded a self-cleavage of 0. In the case of C15G A16C G27U G33A G36U, the self-cleavage is reported as 0.04. In the case of C15G A16G A26U, the self-cleavage is reported as 0.09. For C15G A16G G27U, the self-cleavage was 0.03. Work on C15G A16G G44A yielded a self-cleavage of 0.08. For C15G A16G U38C, the self-cleavage was 0.33. Variant C15G A16U A41G has a self-cleavage of 0.01. C15G A16U C18G G22U G35U U43C C46U showed a self-cleavage of 0.04. C15G A16U G40A C45G gave a self-cleavage of 0.04. In the case of C15G A16U G44A, the self-cleavage is reported as 0.03. Variant C15G A24C U34G C37U has a self-cleavage of 0.01. Variant C15G A24G G30U has a self-cleavage of 0.13. In the case of C15G A24G U28A, the self-cleavage is reported as 0.02. With C15G A24U A26U the self-cleavage was 0.07. C15G A25G G35U A41U C42G C46A showed a self-cleavage of 0.02. C15G A25U A26U G29C C45A showed a self-cleavage of 0.08. C15G A25U C31A gave a self-cleavage of 0.01. C15G A39U C45G showed a self-cleavage of 0.02. For C15G C18A A25G G27A, the self-cleavage was 0. Variant C15G C18A G27C has a self-cleavage of 0.03. C15G C18G G30U gave a self-cleavage of 0.05. With C15G C23A G27C G29C U34G the self-cleavage was 0. Variant C15G C23A G40U U43C has a self-cleavage of 0. In the case of C15G C23G G29U, the self-cleavage is reported as 0.06. For C15G C23U C46G, the self-cleavage was 0.04. For C15G C31A C45A, the self-cleavage was 0.03. C15G C31A G33U C37U U38A gave a self-cleavage of 0.02. Variant C15G C31A G44A has a self-cleavage of 0.13. Work on C15G C31U C37U yielded a self-cleavage of 0. Work on C15G C37A A41G G44C yielded a self-cleavage of 0.01. In the case of C15G C37U U43A, the self-cleavage is reported as 0. C15G G17A C18A G22A G30U C45G showed a self-cleavage of 0.05. With C15G G17A G30A the self-cleavage was 0.09. C15G G17C G33C C42A gave a self-cleavage of 0.01.
